Experimental findings from paper PMC10668032 are described below.

The other results are listed elsewhere or left out. At the low end of the ranking the order means little.

This assay concerns the target SIX1 homeodomain (reference allele) (UniProt Q15475). In words: universal protein binding microarray. The following applies: Universal all-10-mer PBM (8x60K, AMADID 030236), 300 nM GST-tagged protein, Alexa Fluor 488 anti-GST; buffer, salt, pH and temperature not stated; high values mean tight binding; most listed sequences are background and not binding sites; double strand, one strand shown.
As for CCGTCGTC, the binding signal is -0.128 E-score. The same measure for AAGTGTCG: -0.0902 E-score.

For CGACGTAG, the binding signal was -0.106 E-score. The value for CAGAATGG was -0.102 E-score; that for CATAAGTA was 0.00456 E-score; that for AACTTTTA was -0.285 E-score.

On to ATTCTGCG, for which the binding signal is -0.0215 E-score. The same measure for CCGTTCTA: 0.0126 E-score; for GAGCAAGC: -0.241 E-score. The value for ATATGTGG was 0.209 E-score. The value for TCCCTGCA was -0.132 E-score; that for AATTGACG was -0.266 E-score. AGAATCCG: the binding signal worked out at 0.163 E-score. As to AGGTTAAT, the binding signal is -0.155 E-score. The same measure for GAAGTGCC: -0.304 E-score. Turning to CCCCATCC, the binding signal amounted to 0.102 E-score. The same measure for ACGATTGA: -0.137 E-score; for CGTTAGCC: -0.0912 E-score.

For the sequence ACTTGCAC, the binding signal was -0.0381 E-score. The same measure for CGCAGTAA: -0.268 E-score; for ATGGTCGC: -0.192 E-score. The same measure for AATGCATT: -0.28 E-score; for CGTAAGTA: 0.0132 E-score; for CCAACCGC: -0.0414 E-score.

As for CTGATCTA, the binding signal was 0.257 E-score. The same measure for ATGTTATG: -0.0688 E-score; for ATGGGAAT: -0.0522 E-score; for CCACAGCA: 0.0921 E-score.

As for CGATGCTC, the binding signal was -0.0964 E-score. Regarding ACTGCTCG, the binding signal is -0.0475 E-score. The value for GCCCTAAC was -0.191 E-score; that for CCCTTCAC was -0.0811 E-score; that for CCAGTAAG was -0.0864 E-score.

On to GCCGGGTA, for which the binding signal came out at 0.0702 E-score. On to GGTTGCCA, for which the binding signal was -0.135 E-score. The value for AATCACGT was -0.0538 E-score; that for CATCCCGC was -0.0472 E-score; that for AGTTGGAC was -0.257 E-score. For the sequence GGTAGCTA, the binding signal was -0.0338 E-score. For ATATCCCC, the binding signal was 0.457 E-score. The value for ATTGGGAC was -0.171 E-score.

Regarding ACAGACAA, the binding signal is -0.103 E-score. The value for CACCTTTC was -0.118 E-score. The value for GGAAATCA was -0.14 E-score.

In the case of ACGTCTTA, the binding signal came out at 0.0566 E-score. As for CCTAGTCG, the binding signal is -0.0898 E-score. The same measure for CACGGCAG: -0.0382 E-score; for ATACGTCA: 0.196 E-score.

On to CATTGCTC, for which the binding signal was -0.141 E-score. The value for CGGCAGCA was -0.149 E-score; that for GAGTCAAA was -0.154 E-score. The value for CCCCAGGG was 0.0362 E-score; that for AACACGTC was -0.241 E-score.

With CTTCTTAC, the binding signal was -0.0869 E-score. The same measure for CATGATTA: -0.108 E-score. The same measure for GCACGTCA: -0.379 E-score. As for TCAGATAA, the binding signal stood at 0.21 E-score. The same measure for CGACAAAC: -0.15 E-score; for AGCTGTGG: -0.135 E-score; for AGTCATTA: -0.285 E-score.

As for CAGATCAA, the binding signal worked out at 0.298 E-score. The same measure for AGTCTAAT: -0.144 E-score; for AGACTGCG: -0.0794 E-score; for GTAGATAA: 0.0864 E-score. The same measure for CTCAGCAG: -0.095 E-score; for CACAGGTC: -0.154 E-score; for GATGGTAA: 0.0563 E-score.

With TGGGACAA, the binding signal is -0.206 E-score. The same measure for AGTGGGAA: -0.0951 E-score. The same measure for CGAAAACA: -0.193 E-score. The same measure for AAACGGCC: -0.126 E-score; for CATCCACC: 0.0673 E-score. As for GCATCGTA, the binding signal amounted to 0.066 E-score. The value for ACGATCCG was 0.425 E-score; that for CTCTCCGC was -0.00954 E-score; that for AAAGTTGA was -0.208 E-score. The value for CGGCGGCA was -0.198 E-score. The value for AACTGCGG was -0.105 E-score.

Turning to CGTAGATA, the binding signal came out at 0.23 E-score. The value for AACCGTAG was -0.219 E-score; that for CTGCACAC was -0.159 E-score. For the sequence ATCGTCCC, the binding signal stood at 0.232 E-score.

On to CCTGCAGA, for which the binding signal stood at 0.0069 E-score.

On to GCCGCTGA, for which the binding signal was -0.0861 E-score. The same measure for CCATATGA: 0.0499 E-score; for CAATTACG: -0.186 E-score.

With AATTATCA, the binding signal turned out to be 0.0693 E-score. The value for TCGACACA was -0.062 E-score.

Take AATGGCAT: the binding signal was found to be 0.0394 E-score.

Take GAACCGAA: the binding signal was -0.182 E-score.

With AGCAGATA, the binding signal was 0.319 E-score. The same measure for GAGTGATC: 0.336 E-score. Regarding CTAAGGGC, the binding signal was -0.307 E-score.

Regarding CGTTACCC, the binding signal turned out to be 0.0398 E-score. Consider GAAACCAC, for which the binding signal is 0.206 E-score. The same measure for GTTCGCGA: -0.0837 E-score; for TAAGCCCA: -0.133 E-score. The value for CATGGTCC was -0.00628 E-score; that for ACCGTTCG was 0.145 E-score. Consider AAAAGCAA, for which the binding signal is -0.315 E-score. The value for AGCAAACA was -0.195 E-score; that for ACCTCTGC was -0.0615 E-score.

As for GCCACCAA, the binding signal is -0.171 E-score. The value for AAGGTGCA was -0.00721 E-score. Regarding ATCGAAGG, the binding signal was determined as 0.179 E-score. Take CTGGGGGC: the binding signal was -0.238 E-score. Take AAGTGAAG: the binding signal was -0.163 E-score. On to GTAGATCA, for which the binding signal was determined as 0.29 E-score. The same measure for AACTACTA: -0.011 E-score; for ACATTTGA: -0.118 E-score. TCTGTGAA: the binding signal was found to be 0.0513 E-score.

In the case of AAAGCCCC, the binding signal was -0.171 E-score.

As for GGCTACTA, the binding signal is 0.0834 E-score. Consider ACTAGTTA, for which the binding signal stood at 0.0011 E-score.

As for AAGTCCCA, the binding signal is -0.296 E-score.

In the case of AGTACGTA, the binding signal amounted to 0.0991 E-score.

Regarding CTGCTAAA, the binding signal is -0.117 E-score. The same measure for GTAAGGAA: -0.174 E-score; for ACAGTTAG: -0.164 E-score. With GAATGGCA, the binding signal was -0.186 E-score. The same measure for AGAAACAT: -0.131 E-score; for CCGGACCA: -0.0433 E-score. AGATCAGG: the binding signal was 0.284 E-score. The same measure for CCCTCAGG: -0.0447 E-score; for ACCAGCCT: 0.106 E-score; for CCCAAATC: -0.171 E-score.

Regarding CCCGGCAG, the binding signal was -0.0973 E-score. The value for TCAGTACA was -0.0309 E-score; that for ATCTCAAG was 0.215 E-score; that for GTTCTTGA was -0.102 E-score. Consider TACAGTGA, for which the binding signal worked out at 0.00292 E-score. The same measure for GGAATTCA: -0.154 E-score; for TCCTACCA: -0.027 E-score. The same measure for CGCCGTAG: -0.188 E-score.

As for GCTCGTTA, the binding signal is -0.0541 E-score. The same measure for ATTTTACC: -0.038 E-score; for AGGCTCAG: 0.0998 E-score; for ACTACCGA: -0.0724 E-score. The same measure for CAAGGCAG: -0.175 E-score; for GTTATACA: 0.151 E-score; for CAAATTGA: -0.154 E-score. The same measure for AACTATTA: -0.13 E-score; for GCTCGACC: -0.0828 E-score; for AGGTTCCC: -0.255 E-score. For the sequence CTAAGTCA, the binding signal was -0.154 E-score. The same measure for CTACGCGA: 0.0205 E-score. The value for AGACCAAT was -0.144 E-score. Take ACATCTAA: the binding signal is -0.0234 E-score. On to CTGTGCTC, for which the binding signal worked out at 0.0398 E-score. The same measure for ACAGTAGG: -0.096 E-score; for TCAACTGA: 0.0209 E-score. ATTTTCGC: the binding signal is -0.145 E-score. The value for GCATAAGC was -0.173 E-score; that for GGGCGAAC was -0.0928 E-score; that for AAAGGTAC was -0.113 E-score.

Consider CGCGCAGA, for which the binding signal came to 0.0738 E-score. The same measure for GACTGAAC: -0.134 E-score; for CACTGAGC: -0.0612 E-score; for CTCGATGA: 0.165 E-score. The same measure for AAAAATCG: -0.241 E-score.

Consider CACACATA, for which the binding signal is -0.0524 E-score.

Consider CTACTCTA, for which the binding signal worked out at 0.11 E-score.

CTCGCTTA: the binding signal was determined as 0.0595 E-score. The same measure for ATAATCTC: 0.186 E-score. The value for CAGCCACA was -0.0704 E-score. The same measure for AAAAACCA: -0.06 E-score; for ATAGCGGC: 0.194 E-score. With AGGCCCTG, the binding signal was -0.261 E-score. In the case of AATCTAGT, the binding signal was -0.121 E-score. The same measure for CCTGTGCA: -0.141 E-score. On to CAACGTCC, for which the binding signal is -0.316 E-score. As to AGGCACCA, the binding signal is -0.053 E-score.
